# Laboratory results: publication PMC9911399, “Two distinct binding modes provide the RNA-binding protein RbFox with extraordinary sequence specificity”
# Positions count from the first letter of the chain named. The list shows a part of the results.
# T1: RBFOX1 RRM RbFoxmut (Fox-RRM*) (Homo sapiens, UniProt Q9NWB1 109-208, R118D;E147R;N151S;E152T)
# T1 sequence: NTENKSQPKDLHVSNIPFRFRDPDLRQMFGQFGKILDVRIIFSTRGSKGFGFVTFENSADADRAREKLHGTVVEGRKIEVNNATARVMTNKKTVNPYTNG
# B1: UACAAGU (DNA:RNA)
# RNA: GGGAGACCGGAAUUCAGAUUGUCCUACAAGUUUAAAUCCCGUCGUAGCCACCA
# DNA 1: CAATCTGAATTCCGGTCTCCC
# DNA 2: TGGTGGCTACGACGGGATT
# B2: GAGAUAG (DNA:RNA)
# RNA: B1 RNA with U25G, C27G, A29U, G30A, U31G
# DNA 1: CAATCTGAATTCCGGTCTCCC
# DNA 2: TGGTGGCTACGACGGGATT
# B3: AGGAUUU (DNA:RNA)
# RNA: B1 RNA with U25A, A26G, C27G, A29U, G30U
# DNA 1: CAATCTGAATTCCGGTCTCCC
# DNA 2: TGGTGGCTACGACGGGATT
# B4: CUGAGAU (DNA:RNA)
# RNA: B1 RNA with U25C, A26U, C27G, A29G, G30A
# DNA 1: CAATCTGAATTCCGGTCTCCC
# DNA 2: TGGTGGCTACGACGGGATT
# B5: GAGGGGG (DNA:RNA)
# RNA: B1 RNA with U25G, C27G, A28G, A29G, U31G
# DNA 1: CAATCTGAATTCCGGTCTCCC
# DNA 2: TGGTGGCTACGACGGGATT
# B6: CAGCAGA (DNA:RNA)
# RNA: B1 RNA with U25C, C27G, A28C, U31A
# DNA 1: CAATCTGAATTCCGGTCTCCC
# DNA 2: TGGTGGCTACGACGGGATT
# B7: UUUUACA (DNA:RNA)
# RNA: B1 RNA with A26U, C27U, A28U, G30C, U31A
# DNA 1: CAATCTGAATTCCGGTCTCCC
# DNA 2: TGGTGGCTACGACGGGATT
# B8: CCGGCUG (DNA:RNA)
# RNA: GGGAGACCGGAAUUCAGAUUGUCCCCGGCUGUUAAAUCCCGUCGUAGCCACCA
# DNA 1: CAATCTGAATTCCGGTCTCCC
# DNA 2: TGGTGGCTACGACGGGATT
# B9: CCCAAAG (DNA:RNA)
# RNA: B8 RNA with G27C, G28A, C29A, U30A
# DNA 1: CAATCTGAATTCCGGTCTCCC
# DNA 2: TGGTGGCTACGACGGGATT
# B10: UCGAUUG (DNA:RNA)
# RNA: B8 RNA with C25U, G28A, C29U
# DNA 1: CAATCTGAATTCCGGTCTCCC
# DNA 2: TGGTGGCTACGACGGGATT
# B11: UACGAAU (DNA:RNA)
# RNA: B1 RNA with A28G, G30A
# DNA 1: CAATCTGAATTCCGGTCTCCC
# DNA 2: TGGTGGCTACGACGGGATT
# B12: CUUCUCC (DNA:RNA)
# RNA: B8 RNA with C26U, G27U, G28C, C29U, U30C, G31C
# DNA 1: CAATCTGAATTCCGGTCTCCC
# DNA 2: TGGTGGCTACGACGGGATT
# B13: UGCCGAC (DNA:RNA)
# RNA: B1 RNA with A26G, A28C, A29G, G30A, U31C
# DNA 1: CAATCTGAATTCCGGTCTCCC
# DNA 2: TGGTGGCTACGACGGGATT
# B14: UAUGUGC (DNA:RNA)
# RNA: B1 RNA with C27U, A28G, A29U, U31C
# DNA 1: CAATCTGAATTCCGGTCTCCC
# DNA 2: TGGTGGCTACGACGGGATT
# B15: UCACCGC (DNA:RNA)
# RNA: B8 RNA with C25U, G27A, G28C, U30G, G31C
# DNA 1: CAATCTGAATTCCGGTCTCCC
# DNA 2: TGGTGGCTACGACGGGATT
# B16: CCGAAUU (DNA:RNA)
# RNA: B8 RNA with G28A, C29A, G31U
# DNA 1: CAATCTGAATTCCGGTCTCCC
# DNA 2: TGGTGGCTACGACGGGATT
# B17: UGGUCAG (DNA:RNA)
# RNA: B8 RNA with C25U, C26G, G28U, U30A
# DNA 1: CAATCTGAATTCCGGTCTCCC
# DNA 2: TGGTGGCTACGACGGGATT
# B18: ACCGAAC (DNA:RNA)
# RNA: B8 RNA with C25A, G27C, C29A, U30A, G31C
# DNA 1: CAATCTGAATTCCGGTCTCCC
# DNA 2: TGGTGGCTACGACGGGATT
# B19: AUUAUCU (DNA:RNA)
# RNA: B1 RNA with U25A, A26U, C27U, A29U, G30C
# DNA 1: CAATCTGAATTCCGGTCTCCC
# DNA 2: TGGTGGCTACGACGGGATT
# B20: UCAUACA (DNA:RNA)
# RNA: B1 RNA with A26C, C27A, A28U, G30C, U31A
# DNA 1: CAATCTGAATTCCGGTCTCCC
# DNA 2: TGGTGGCTACGACGGGATT
# Biological target: T1, RBFOX1 RRM RbFoxmut (Fox-RRM*)
# Test: EMSA; HiTS-Eq, 1 nM pool, 10 min; buffer printed only for the single-RNA assays: 10 mM Tris pH 7.5, 150 mM NaCl, 3.4 mM EDTA, 0.001% NP-40, 30 C
# Conditions: tags: His6 N-terminal (pET28a); label: 5' 32P
# Outline: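 Purified RbFox RRM, wild type or mutant, was incubated for 10 min in 50 µL with 1 nM of a 5′-radiolabelled RNA pool carrying 7 randomized nucleotides, whose flanks were annealed to DNA oligonucleotides, over a series of increasing protein concentrations. Unbound RNA was resolved on 8% native PAGE, cut out, reverse-transcribed, barcoded by PCR and sequenced on an Illumina HiSeq 2500. Relative association constants were derived from changes in read counts for each RNA species versus the control reaction and normalised to the cognate motif.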
row,Binder,binding signal
1,B1,0.0549 KA relative to UGCAUGU
2,B2,0.119 KA relative to UGCAUGU
3,B3,0.105 KA relative to UGCAUGU
4,B4,0.0744 KA relative to UGCAUGU
5,B5,0.0771 KA relative to UGCAUGU
6,B6,0.115 KA relative to UGCAUGU
7,B7,0.103 KA relative to UGCAUGU
8,B8,0.153 KA relative to UGCAUGU
9,B9,0.106 KA relative to UGCAUGU
10,B10,0.239 KA relative to UGCAUGU
11,B11,0.0952 KA relative to UGCAUGU
12,B12,0.0662 KA relative to UGCAUGU
13,B13,0.102 KA relative to UGCAUGU
14,B14,0.131 KA relative to UGCAUGU
15,B15,0.135 KA relative to UGCAUGU
16,B16,0.0591 KA relative to UGCAUGU
17,B17,0.119 KA relative to UGCAUGU
18,B18,0.0692 KA relative to UGCAUGU
19,B19,0.106 KA relative to UGCAUGU
20,B20,0.112 KA relative to UGCAUGU
